“And” between values parts separate entries of the source, which are not always exact repeats. Identical values can stand only once. The list shows a part of the results. These are further read-outs of the screen, such as a control signal, another cell line or another target. No call is given for them.
Key:
Assay in all cases: Primary Screen for Target Class Profiling of Small Molecule Inhibitors of Methyltransferases
[1] = target: Glycine N-methyltransferase (Homo sapiens) (UniProt Q14749); details: purified enzyme, MTase-Glo SAH luminescence; measured here: GNMT inhibition; at 40 µM; stronger effect = lower value
Procedure, shortened: (§1)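 Each enzyme was reacted with SAM and its substrate, with compounds tested once at 40 uM; SAH formed was read by MTase-Glo luminescence.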

[2] = target: Guanidinoacetate N-methyltransferase (Homo sapiens) (UniProt Q14353); details: purified enzyme, MTase-Glo SAH luminescence; measured here: GAMT inhibition; at 40 µM; stronger effect = lower value
Procedure, shortened: as §1

[3] = target: Histamine N-methyltransferase (Homo sapiens) (UniProt P50135); details: purified enzyme, MTase-Glo SAH luminescence; measured here: HNMT inhibition; at 40 µM; stronger effect = lower value
Procedure, shortened: as §1

[4] = target: Nicotinamide N-methyltransferase (Homo sapiens) (UniProt P40261); details: purified enzyme, MTase-Glo SAH luminescence; measured here: NNMT inhibition; at 40 µM; stronger effect = lower value
Procedure, shortened: as §1

[5] = target: Phenylethanolamine N-methyltransferase (Homo sapiens) (UniProt P11086); details: purified enzyme, MTase-Glo SAH luminescence; measured here: PNMT inhibition; at 40 µM; stronger effect = lower value
Procedure, shortened: as §1
% is set by controls: 0 for no effect and ±100 for the full control effect.

Row | SMILES | activity change, negative = inhibition [1] | activity change, negative = inhibition [2] | activity change, negative = inhibition [3] | activity change, negative = inhibition [4] | activity change, negative = inhibition [5]
1 | Nc1ncnc2c1ncn2[C@@H]1O[C@H](CO)C[C@H]1O | 17.4% | 17.1% | 14.3% | 13.8% | 4.37%
2 | CC(C)(C)OC(=O)Nc1ccc(-c2cc(C(=O)NCCCCCCC(=O)NO)no2)cc1 | -12.5% | – | -0.018% | 5.85% | 20.4%
3 | COc1ccc(CN2C[C@H]3CN(S(=O)(=O)c4ccc(C)cc4)CCN3C2=O)cc1 | -11.5% | -8.38% | -6.58% | -21.9% | -12.8%
4 | NCCc1cccc(CN2CCCC(CO)(CC3CC3)C2)c1 (configuration not stated) | -10.9% | -8.06% | -15.2% | -14.7% | -16.8%
5 | CC(C)CCN1CCC(O)(c2csc(CN(C)Cc3cccnc3)n2)CC1 | -6.53% | -4.64% | -7.28% | -7.55% | 5.77%
6 | CCOC(=O)Cc1ccc(NC(=O)N2Cc3c(sc4c3CCCC4)-n3cccc3C2c2ccccc2)cc1 (configuration not stated) | -1.38% | 1.99% | 1.67% | -1.68% | 2.51%
7 | CC1c2cccn2CCN1C(=O)Nc1ccc(Br)cc1 (configuration not stated) | -8.45% | 3.95% | -7.49% | -6.55% | -2.76%
8 | CC1CC(C)CN(S(=O)(=O)c2ccc3c(c2)oc(=O)n3CC(=O)N2CCN(C)CC2)C1 (configuration not stated) | -6.83% | -0.609% | -4.49% | 1.07% | -6.47%
9 | CN(C)c1nc2c(c(N3C[C@@H](CN4CCCC4)[C@@H](CO)C3)n1)CCCC2 | -0.204% | 1.49% | -76.3% | -1.23% | -0.777%
10 | CCc1cc2c(cc3n2CC(C)(C(=O)NC2CCC(C)CC2)N(CCN(CC)CC)C3=O)s1 (configuration not stated) | 2.94% | 4.58% | -3.25% | 2.96% | -2.35%
11 | COCC(=O)N1CCC(C(=O)NC(C)c2ccc3c(c2)OCCCO3)CC1 (configuration not stated) | -5.92% | -10.5% | -4.5% | -17% | -12.1%
12 | Cc1ccccc1C(=O)N(C)C1CCCc2ccccc21 (configuration not stated) | -7.89% | -0.519% | -1.67% | -13.4% | -1.29%
13 | Cc1nccn1CCC1CCN(c2nccc(-c3ccccn3)n2)CC1 | -8.12% | 2.54% | -69.6% | -11.3% | 0.818%
14 | COc1cccc(Cn2nc3n(Cc4ccccc4)c(=O)c4ccc(C(=O)NCC(C)C)cc4n3c2=O)c1 | 0.788% | 4.22% | 2.18% | 1.53% | 2.93%
15 | COc1ccc(N2CCN(C(=O)c3cccc(Nc4nc5ccccc5n5nnnc45)c3)CC2)cc1 | -8.01% | 1.76% | -8.17% | 0.965% | -10.8%
16 | Nc1nc(Nc2ccccc2)nc2c1ncn2[C@@H]1O[C@H](CO)[C@@H](O)[C@H]1O | 4.46% | 13.4% | 10.5% | -3.15% | 3.26%
17 | O=S1(=O)CCN(CN2CCS(=O)(=O)NC2)CN1 | – | 7.05% | – | -6.88% | 1.26%
18 | Cc1ccc(Cn2c(=O)c3ccccc3n3c(=O)n(CC(=O)c4cccc(Cl)c4)nc23)cc1 | 6.84% | 0.805% | 9.91% | -1.24% | 3.79%
19 | O=[S+]1([O-])c2cccnc2OC(Cn2cccc2)CN1Cc1cccc(F)c1 (configuration not stated) | -0.828% | -1.52% | 0.112% | -3.35% | -1.97%
20 | O=C(c1cnc(C23CC4CC(CC(C4)C2)C3)[nH]c1=O)N1C[C@H]2CNC[C@H]2C1 | -5.18% | -10.4% | -5.15% | -14.4% | -14.1%

Row | SMILES | activity change, negative = inhibition [1] | activity change, negative = inhibition [2] | activity change, negative = inhibition [3] | activity change, negative = inhibition [4] | activity change, negative = inhibition [5]
21 | CC(=O)N1CCCN(c2ncnc3c2CN(c2ccc([N+](=O)[O-])cc2)C(=O)N(C)C3)CC1 | -3.83% | -5.68% | -2.49% | -8.21% | -4.45%
22 | N#Cc1cccc(-c2ccnc(N[C@H]3CO[C@H]4[C@@H]3OC[C@H]4OC(=O)NC3CCCCC3)n2)c1 | -1.24% | -1% | 0.516% | 0.284% | 3.27%
23 | Cc1ccc(CCN2CCCCC23Cc2ccccc2CN([S+](C)(=O)[O-])C3)cc1 (configuration not stated) | -6.73% | -0.904% | -10.7% | -5.04% | -4.91%
24 | COc1ccc(NC(=O)N[C@H]2[C@H](O)[C@@H](Sc3ccccc3)[C@@H]3OC[C@H]2O3)cc1 | -7.39% | -9.56% | -3.43% | -15.5% | -7.57%
25 | CSCC(=O)N1C[C@@H](NC(=O)NC(C)C)C[C@H]1C(=O)N[C@H](Cc1c[nH]c2ccccc12)C(N)=O | -3.78% | -2.38% | 0.883% | -1.56% | -3.43%
26 | CCOc1ccc(CNC(=O)Cn2ccc3cc(S(=O)(=O)N4CCCCC4)ccc32)cc1 | 0.51% | 0% | -1.76% | -4.88% | -3.42%
27 | Cn1nc(-c2ccc(C(F)(F)F)cc2)nc2c(=O)n(C)c(=O)nc1-2 | -94.3% | -97.1% | -86.4% | -79.1% | -26.6%
28 | Cc1cccc(CN2CC(=O)N(Cc3ccc(F)cc3)c3ccccc3S2(=O)=O)c1 | 8.33% | -0.495% | 15.6% | -8.47% | 0.597%
29 | Nc1nc2c(s1)CCN(Cc1ccc(Cl)cc1)CC2 | 3.9% | 3.86% | -26% | -20.1% | -8.77%
30 | COc1ccc(Cn2c(=O)c3ccccc3n3c(-c4ccc(OC)c(OC)c4)nnc23)cc1 | -2.37% | 0% | 2.77% | 4.84% | -0.682%
31 | O=C(c1cccnc1OC1CCN(Cc2ccccn2)C1)N1CCCCC1 (configuration not stated) | -8.68% | -6.69% | -6.17% | -9.72% | 1.61%
32 | CCC(C)NC(=O)c1ccc2c(=O)n(C)c3nnc(SCc4cccc(OC)c4)n3c2c1 (configuration not stated) | 6.69% | 0% | 4.14% | 4.13% | 5.49%
33 | Nc1ccccc1NC(=O)c1ccc(CNc2nccc(-c3cccnc3)n2)cc1 | -15.8% | -6.04% | -0.142% | -20% | -13.5%
34 | COc1cc(-c2cc(-c3ccc(N4CCNCC4)cc3)cnc2C)cc(OC)c1OC | -21% | -5.96% | 0.768% | -30.3% | -11%
35 | CCn1nc(C)c(-c2cc(C(=O)NCCc3noc(COC)n3)no2)c1C | -3.36% | -4.07% | -1.57% | -6.04% | -5.15%
36 | COc1ccc(CCN2C(=O)c3cc4sccc4n3CC2(C)C(=O)NC2CCCC2)cc1OC (configuration not stated) | -0.219% | -4.52% | -2.69% | -21.2% | -3.51%
37 | COC(=O)[C@H]1CCCN1C(=O)[C@@H]1C[C@@H](NS(=O)(=O)c2cccs2)CCN1C(=O)COCC(=O)O | -3.6% | -2.47% | -1.13% | -4.82% | 2.2%
38 | CC1(C(=O)NC2CCCCCC2)Cn2c(c(-n3cccc3)c3cc(F)ccc32)C(=O)N1Cc1cccs1 (configuration not stated) | -4.76% | 3.73% | -2.5% | -4.34% | -3.84%
39 | Cc1ccc(S(=O)(=O)/C=C/C#N)cc1 | -68.6% | 0.04% and 6.08% | 0.378% | -8.36% and -0.11% | 7.66% and 8.6%

Source: PubChem BioAssay AID1745853 (National Center for Advancing Translational Sciences (NCATS), 2022)
